Type in all cases: in vivo
Assay [1] concerns Botrytis cinerea. The assay can be described thus: Test Example B: Gray mold on tomato. To be noted: Table 7, Test B.
For assay [2], the system named is Plasmopara viticola. The assay can be described thus: Test Example G: Downy mildew on vine. Conditions: 250 ppm sprayed (2.5 ml/pot) before inoculation; assessed 7 to 10 days after inoculation.
For assay [3], the system named is Alternaia brassicicola. The experiment in a line: Test Example C: Alternaria sooty spot on cabbage. Conditions: Table 7, Test C.
The subject of assay [4] is Blumeria graminis f. sp. hordei. The experiment in a line: Test Example D: Powdery mildew on barley. To be noted: Table 7, Test D.
Assay [5] concerns Puccinia recondita. The experiment in a line: Test Example E: Brown rust on wheat. To be noted: Table 7, Test E.

As to `CCn1c(-c2c(F)cc(OCOC)cc2F)c(-n2cc(Cl)cn2)cc(Cl)c1=O` [Compound 203], in assay [1], the “control value, Test B (gray mold on tomato)” value (shortened to “control value, Test B”) was “H (H shows the control value more than 50%)”. In addition, the “control value, Test G (downy mildew on vine)” value (from here on “control value, Test G”) in assay [2] is on record as “L (L shows the control value of 50% or less)”. Further, the “control value, Test C (Alternaria sooty spot on cabbage)” value (“control value, Test C” below) in assay [3] was “H (H shows the control value more than 50%)”. Further, the “control value, Test D (powdery mildew on barley)” value (shortened to “control value, Test D”) in assay [4] was “H (H shows the control value more than 50%)”. Moreover, in assay [5], the “control value, Test E (brown rust on wheat)” value (“control value, Test E” for short) is recorded as “H (H shows the control value more than 50%)”.

Regarding `O=c1c(Br)cc(-n2cc(Cl)cn2)c(-c2c(F)cc(F)cc2F)n1CC(F)F` [Compound 207], the “control value, Test B” value in assay [1] is reported as “H (H shows the control value more than 50%)”. Further, the “control value, Test G” value in assay [2] was “H (H shows the control value more than 50%)”. Also, the “control value, Test C” value in assay [3] was “H (H shows the control value more than 50%)”. Also, the “control value, Test D” value in assay [4] is on record as “H (H shows the control value more than 50%)”. The “control value, Test E” value in assay [5] is “H (H shows the control value more than 50%)”.

Turning to `CCn1c(-c2ccccc2Cl)c(-n2cnc(Cl)c2Cl)ccc1=O` [Compound 208], the “control value, Test B” value in assay [1] is listed as “H (H shows the control value more than 50%)”. Besides, in assay [2], the “control value, Test G” value is “L (L shows the control value of 50% or less)”. In assay [3], the “control value, Test C” value was “H (H shows the control value more than 50%)”. In addition, in assay [4], the “control value, Test D” value is reported as “H (H shows the control value more than 50%)”. For the same compound, in assay [5], the “control value, Test E” value was “H (H shows the control value more than 50%)”.

For the compound `CCn1c(-c2ccccc2Cl)c(-n2cnc(Cl)c2Cl)cc(Cl)c1=O` [Compound 209], the “control value, Test B” value in assay [1] is on record as “H (H shows the control value more than 50%)”. Moreover, the “control value, Test G” value in assay [2] is recorded as “L (L shows the control value of 50% or less)”. In addition, the “control value, Test C” value in assay [3] is recorded as “H (H shows the control value more than 50%)”. Also, in assay [4], the “control value, Test D” value is “H (H shows the control value more than 50%)”. The “control value, Test E” value in assay [5] is “H (H shows the control value more than 50%)”.

Turning to `CCn1c(-c2ccccc2Cl)c(-n2cnc(Cl)c2Cl)cc(Br)c1=O` [Compound 210], the “control value, Test B” value in assay [1] is on record as “H (H shows the control value more than 50%)”. Further, in assay [2], the “control value, Test G” value is “L (L shows the control value of 50% or less)”. In assay [3], the “control value, Test C” value was “L (L shows the control value of 50% or less)”. In assay [4], the “control value, Test D” value was “L (L shows the control value of 50% or less)”. Moreover, the “control value, Test E” value in assay [5] is given as “H (H shows the control value more than 50%)”.

For the compound `O=c1ccc(-n2cc(Cl)cn2)c(-c2ccc(F)cc2F)n1CC(F)F` [Compound 211], in assay [1], the “control value, Test B” value is recorded as “L (L shows the control value of 50% or less)”. In assay [2], the “control value, Test G” value is listed as “L (L shows the control value of 50% or less)”. Also, the “control value, Test C” value in assay [3] is “H (H shows the control value more than 50%)”. In addition, in assay [4], the “control value, Test D” value is reported as “H (H shows the control value more than 50%)”. Further, the “control value, Test E” value in assay [5] is “H (H shows the control value more than 50%)”.

Take `O=c1c(Cl)cc(-n2cc(Cl)cn2)c(-c2ccc(F)cc2F)n1CC(F)F` [Compound 212]: the “control value, Test B” value in assay [1] was “L (L shows the control value of 50% or less)”. Further, the “control value, Test G” value in assay [2] is listed as “L (L shows the control value of 50% or less)”. In addition, the “control value, Test C” value in assay [3] is on record as “H (H shows the control value more than 50%)”. Also, the “control value, Test D” value in assay [4] is “H (H shows the control value more than 50%)”. Also, the “control value, Test E” value in assay [5] is on record as “L (L shows the control value of 50% or less)”.

Take `COc1ccc(-c2c(-n3cc(Cl)cn3)cc(Cl)c(=O)n2CC(F)F)c(F)c1` [Compound 213]: the “control value, Test B” value in assay [1] was “H (H shows the control value more than 50%)”. Besides, the “control value, Test G” value in assay [2] is “L (L shows the control value of 50% or less)”. Moreover, the “control value, Test C” value in assay [3] is listed as “H (H shows the control value more than 50%)”. Moreover, the “control value, Test D” value in assay [4] is on record as “H (H shows the control value more than 50%)”. The “control value, Test E” value in assay [5] is on record as “H (H shows the control value more than 50%)”.

Regarding `O=c1c(Br)cc(-n2cc(Cl)cn2)c(-c2ccc(F)cc2F)n1CC(F)F` [Compound 214], in assay [1], the “control value, Test B” value was “L (L shows the control value of 50% or less)”. In assay [2], the “control value, Test G” value is “H (H shows the control value more than 50%)”. Besides, the “control value, Test C” value in assay [3] is recorded as “H (H shows the control value more than 50%)”. Also, in assay [4], the “control value, Test D” value is on record as “H (H shows the control value more than 50%)”. Besides, in assay [5], the “control value, Test E” value was “H (H shows the control value more than 50%)”.

Regarding `CCn1c(-c2c(F)cccc2Br)c(-n2cc(Cl)cn2)ccc1=O` [Compound 216], the “control value, Test B” value in assay [1] was “H (H shows the control value more than 50%)”. In addition, in assay [2], the “control value, Test G” value is reported as “L (L shows the control value of 50% or less)”. In assay [3], the “control value, Test C” value was “H (H shows the control value more than 50%)”. Also, the “control value, Test D” value in assay [4] is given as “H (H shows the control value more than 50%)”. In assay [5], the “control value, Test E” value is listed as “H (H shows the control value more than 50%)”.

Take `CCn1c(-c2ccccc2F)c(-n2cc(Cl)cn2)ccc1=O` [Compound 217]: in assay [1], the “control value, Test B” value was “H (H shows the control value more than 50%)”. Also, in assay [2], the “control value, Test G” value is reported as “L (L shows the control value of 50% or less)”. The “control value, Test C” value in assay [3] is reported as “H (H shows the control value more than 50%)”. Also, in assay [4], the “control value, Test D” value was “H (H shows the control value more than 50%)”. For the same compound, the “control value, Test E” value in assay [5] is reported as “H (H shows the control value more than 50%)”.

As for `CCn1c(-c2c(F)cccc2Br)c(-n2cc(Cl)cn2)cc(Cl)c1=O` [Compound 218], the “control value, Test B” value in assay [1] was “L (L shows the control value of 50% or less)”. Moreover, the “control value, Test G” value in assay [2] is “L (L shows the control value of 50% or less)”. Also, in assay [3], the “control value, Test C” value is “H (H shows the control value more than 50%)”. Besides, in assay [4], the “control value, Test D” value is recorded as “L (L shows the control value of 50% or less)”. In addition, in assay [5], the “control value, Test E” value is “L (L shows the control value of 50% or less)”.

With `CCn1c(-c2c(F)cccc2Br)c(-n2cc(Cl)cn2)cc(Br)c1=O` [Compound 219], in assay [1], the “control value, Test B” value was “L (L shows the control value of 50% or less)”. Besides, the “control value, Test G” value in assay [2] was “H (H shows the control value more than 50%)”. The “control value, Test C” value in assay [3] is “L (L shows the control value of 50% or less)”. The “control value, Test D” value in assay [4] is recorded as “L (L shows the control value of 50% or less)”. Moreover, in assay [5], the “control value, Test E” value was “L (L shows the control value of 50% or less)”.

`CCn1c(-c2ccccc2F)c(-n2cc(Cl)cn2)cc(Cl)c1=O` [Compound 220]: the “control value, Test B” value in assay [1] is “H (H shows the control value more than 50%)”. For the same compound, in assay [2], the “control value, Test G” value is recorded as “L (L shows the control value of 50% or less)”. Also, in assay [3], the “control value, Test C” value was “H (H shows the control value more than 50%)”. Besides, the “control value, Test D” value in assay [4] is on record as “H (H shows the control value more than 50%)”. In assay [5], the “control value, Test E” value was “H (H shows the control value more than 50%)”.

As to `CCn1c(-c2ccccc2F)c(-n2cc(Cl)cn2)cc(Br)c1=O` [Compound 221], the “control value, Test B” value in assay [1] is given as “L (L shows the control value of 50% or less)”. Further, the “control value, Test G” value in assay [2] is recorded as “L (L shows the control value of 50% or less)”. For the same compound, the “control value, Test C” value in assay [3] is given as “H (H shows the control value more than 50%)”. Besides, the “control value, Test D” value in assay [4] is on record as “L (L shows the control value of 50% or less)”. Further, the “control value, Test E” value in assay [5] was “L (L shows the control value of 50% or less)”.

On to `COc1cc(F)c(-c2c(-n3cc(Cl)cn3)cc(Br)c(=O)n2CC(F)F)c(F)c1` [Compound 222], for which, in assay [1], the “control value, Test B” value is reported as “H (H shows the control value more than 50%)”. Besides, in assay [2], the “control value, Test G” value is recorded as “L (L shows the control value of 50% or less)”. For the same compound, the “control value, Test C” value in assay [3] is on record as “H (H shows the control value more than 50%)”. The “control value, Test D” value in assay [4] was “H (H shows the control value more than 50%)”. Moreover, in assay [5], the “control value, Test E” value was “H (H shows the control value more than 50%)”.

On to `Cc1cnn(-c2ccc(=O)n(CC(F)F)c2-c2ccccc2Cl)c1` [Compound 227], for which the “control value, Test B” value in assay [1] is “H (H shows the control value more than 50%)”. The “control value, Test G” value in assay [2] was “L (L shows the control value of 50% or less)”. For the same compound, the “control value, Test C” value in assay [3] is on record as “H (H shows the control value more than 50%)”. In addition, the “control value, Test D” value in assay [4] is reported as “H (H shows the control value more than 50%)”. Further, in assay [5], the “control value, Test E” value is “H (H shows the control value more than 50%)”.

In the case of `Cc1cnn(-c2cc(Cl)c(=O)n(CC(F)F)c2-c2ccccc2Cl)c1Cl` [Compound 229], the “control value, Test B” value in assay [1] is “H (H shows the control value more than 50%)”. Also, in assay [2], the “control value, Test G” value is reported as “L (L shows the control value of 50% or less)”. In assay [3], the “control value, Test C” value was “H (H shows the control value more than 50%)”. For the same compound, in assay [4], the “control value, Test D” value is given as “H (H shows the control value more than 50%)”. Besides, in assay [5], the “control value, Test E” value is “H (H shows the control value more than 50%)”.

For the origin of these results see patent US11178870B2 (priority 2017, dated 2021).
